Results reported in the GPR68 mutational scans of Howard et al. (2025).
The least precise scores are not listed. Two further conditions of the source, in which the scores hardly spread, are not listed. Names with del lack the residues named; names with ins carry added residues between the positions named. For some assays here: How much ogerin was present is not stated here.

B1: GPR68, Q15743 (parent)
chain: MGNITADNSSMSCTIDHTIHQTLAPVVYVTVLVVGFPANCLSLYFGYLQIKARNELGVYLCNLTVADLFYICSLPFWLQYVLQHDNWSHGDLSCQVCGILLYENIYISVGFLCCISVDRYLAVAHPFRFHQFRTLKAAVGVSVVIWAKELLTSIYFLMHEEVIEDENQHRVCFEHYPIQAWQRAINYYRFLVGFLFPICLLLASYQGILRAVRRSHGTQKSRKDQIQRLVLSTVVIFLACFLPYHVLLLVRSVWEASCDFAKGVFNAYHFSLLLTSFNCVADPVLYCFVSETTHRDLARLRGACLAFLTCSRTGRAREAYPLGAPEASGKSGAQGEEPELLTKLHPAFQTPNSPGSGGFPTGRLA

How the values were obtained:
[1] = variants of: B1; experiment: cAMP reporter score (Enrich2 score, wild type = 0); higher = more signal; HEK293T, FACS bins
[2] = variants of: B1; experiment: surface expression score (Enrich2 score, wild type = 0); higher = more signal; HEK293T, FACS bins

Variant	cAMP reporter score ([1]; pH 5.5)	cAMP reporter score ([1]; pH 6, modulator: ogerin)	cAMP reporter score ([1]; pH 6.5, modulator: ogerin)	surface expression score [2]	cAMP reporter score ([1]; pH 6)
G357_G358insGS	0.227	0.273	1	0.611	–
G358A	0.905	–	1.54	1.69	–
G358C	0.356	0.52	0.45	-0.087	0.265
G358D	0.715	0.409	0.628	1.75	0.05
G358E	-0.971	-0.642	-0.41	–	-1.1
G358H	0.103	1.62	–	1.77	1.73
G358I	0.244	0.609	0.931	-0.519	-0.777
G358K	0.558	1.17	2.36	0.685	2.59
G358L	1.66	1.25	1.07	1.02	0.428
G358M	1.14	1.25	–	0.763	1.84
G358N	-0.046	0.309	0.644	0.504	0.767
G358P	0.589	0.74	0.563	0.066	0.646
G358Q	0.834	0.479	0.114	0.388	-0.181
G358R	0.336	0.755	0.493	0.625	-0.749
G358S	0.818	1.35	0.869	0.62	0.305
G358T	0.518	0.659	0.577	0.204	-0.156

Variant	cAMP reporter score ([1]; pH 5.5)	cAMP reporter score ([1]; pH 6, modulator: ogerin)	cAMP reporter score ([1]; pH 6.5, modulator: ogerin)	surface expression score [2]	cAMP reporter score ([1]; pH 6)
G358V	0.465	0.633	-0.176	-0.799	–
G358W	0.87	1	0.482	-0.021	-0.11
G358Y	0.407	0.294	-0.489	-0.249	-0.958
G358_F359insGSG	1.02	1.06	1.3	1.78	0.496
F359_P360insG	0.087	-0.419	0.391	-0.686	–
F359del	0.492	-0.237	0.228	0.085	1.05
P360A	0.712	-0.454	0.022	0.98	0.51
P360C	1.48	1.16	1.23	1.02	1.13
P360D	0.527	0.274	0.768	0.604	–
P360E	-0.304	-0.229	-0.021	0.03	0.13
P360F	0.76	1.13	1.2	-0.266	1.13
P360G	0.754	0.45	0.743	0.465	–
P360H	-0.512	0.762	0.82	-0.424	1.12
P360I	0.516	0.246	-0.039	0.021	-0.102
P360K	0.067	0.027	-0.291	0.03	–
P360L	0.704	1.12	0.579	0.714	0.297
